# Values joined by “and” are separate entries in the source; they are usually repeats but may differ in a detail not shown here. Equal values may be shown once.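 Compound exposure: 48 hours, 5 concentrations, 96-well plates. GI50 marks 50% less growth. Definition used: TGI = concentration required for complete inhibition of growth.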
# Tested on: NCI-H322M lung
# Assay: NCI anticancer screen, dose series, 48 h
SMILES,TGI,GI50 [µM]
COc1c(C)c(C/C=C(\C)CCCCO[Si](c2ccccc2)(c2ccccc2)C(C)(C)C)c(OC)c(OC)c1OC,> 100 µM,–
CNC(=O)OCC1=C(COC(=O)NC)C(C)N(c2ccc(OC)cc2)C1 (configuration not stated),> 100 µM,–
CCOc1ccc(NC(=O)C(=O)CC(=O)c2c[n+](=O)c3cc(C)c(C)cc3n2[O-])cc1,> 100 µM,–
CCOC(=O)c1c2ccccc2n2c(N)c(C(N)=O)nnc12,> 100 µM,–
O=C(Nc1ccc(C2=NCCN2)cc1)c1cncc(C(=O)Nc2ccc(C3=NCCN3)cc2)c1,> 100 µM,–
COc1cc(-c2nn(-c3ccc(NC(=O)c4ccc(Cl)c(C(F)(F)F)c4)cc3)cc2-c2ccncc2)ccc1Cl,> 100 µM,5.15
Cc1cc(=O)[nH]c(NN2C(Cl)C(=O)C2c2ccccc2O)n1 (configuration not stated),> 100 µM,–
CC1(C)N=C(/C(Cl)=[N+](/[O-])C(=O)c2ccc(F)cc2)C(C)(C)N1O,45.2 µM,–
O=C1c2ccccc2C2C1N2C(=O)C(F)(F)F (configuration not stated),> 100 µM,–
CCOC(=O)N1CCC2(CC1)C[C@](C)(C(C)=O)C(C)O2 (some centres not stated),> 100 µM,–
COC(=O)[C@H]1CO[C@@H](C(C)(C)C)N1C(=O)N1C=CC(=O)C[C@@H]1C,> 100 µM,–
CCCCCN(CCCCC)CCCNc1c2c(nc3ccc(Cl)cc13)CCCC2,16.7 µM,4.4
COC1=CC(=O)c2nc(-c3ccncc3)[nH]c2C1=O,> 100 µM,> 100
O=[N+]([O-])C(=C1NCCN1)/C(Cl)=C(\Cl)Br,> 100 µM,–
CCCCCCCCCCCOc1ccc(C(=O)C(=O)c2ccc(OCCCCCCCCCCC)c(OCCCCCCCCCCC)c2)cc1OCCCCCCCCCCC,> 100 µM,–
Cc1ccc(SCC(CSCCO)OCn2cnc3c2NC(N)=NC32OCCO2)cc1 (configuration not stated),> 100 µM,–
CNC(=O)C(C)C1CCC2(C)C=CC(=O)C(C)=C2C1O (configuration not stated),> 100 µM,–
Nc1ccccc1SC(C[N+](=O)[O-])c1ccc2c(c1)OCO2 (configuration not stated),22.8 µM,–
COc1ccc(C(OCC2OC(n3cc(C)c(=O)[nH]c3=O)CC2n2cc(Cn3cc(I)c(=O)[nH]c3=O)nn2)(c2ccccc2)c2ccccc2)cc1 (configuration not stated),> 100 µM,–

SMILES,TGI,GI50 [µM]
CC1(C)CCc2c(c3c(c4c(=O)c(O)c(-c5ccc(O)cc5)oc24)OC(C)(C)CC3)O1,> 100 µM,92.2
O=C(Cc1cccs1)N[C@@H]1C(=O)N2C(C(=O)OC(c3ccccc3)c3ccccc3)=C(CO)CS[C@H]12,> 100 µM,–
NC(=O)c1cccc2cn(-c3ccc([C@@H]4CCCNC4)cc3)nc12,62.5 µM,22.1
CC(=O)NNc1nc(C)c(C(=O)NNC(=O)C(=O)Nc2ccc(Cl)cc2)s1,> 100 µM,–
O=c1[nH][nH]c(=O)n1Cc1ccccc1Cn1c(=O)[nH][nH]c1=O,> 100 µM,–
CCCNC1=C2CC(C)CC(OC)[C@@H](O)[C@H](C)/C=C(\C)C(OC(N)=O)C(OC)/C=C\C=C(/C)C(=O)NC(=CC1=O)C2=O (some centres not stated),19 µM,–
CCC1(O)CC2CC(=O)OC2C1O (configuration not stated),> 100 µM,–
NC(=O)C(c1ccccc1)N1OC2C(=O)N(c3ccccc3)C(=O)C2C1c1c2ccccc2c(Cl)c2ccccc12 (configuration not stated),> 100 µM,–
CC(C)C/C(CC(=O)CCC(=O)Nc1ccccc1[N+](=O)[O-])=N\NC(=O)c1cc2ccccc2cc1O,> 100 µM,–
N.N.N.N.O=[N+]([O-])[O-].[Co+3].[N-]=[N+]=[N-].[N-]=[N+]=[N-],> 100 µM,–
COc1cc([C@@H]2c3cc4c(cc3[C@@H](Nc3ccc([N+](=O)[O-])cc3C(=O)c3ccccc3)[C@H]3COC(=O)[C@H]23)OCO4)cc(OC)c1OC,> 100 µM,–
COc1ccc(-c2nc3sccn3c2/C(N)=N/C(=N)N)cc1OC,> 100 µM,51.7
CCOc1cc2c(cc1O)/C(=N\OC)C[C@@H]1[C@@H]2CC[C@]2(C)[C@@H](O)CC[C@@H]12,> 100 µM,–
Cc1cccc2c(=O)cc(-c3ccccc3)[nH]c12,> 100 µM,–
NC(=O)c1sc(-n2cnc3ccccc32)cc1OCc1ccccc1Br,> 25 µM,10.7
COc1cc2c(cc1OC)C(c1ccccc1CCCCl)=NCC2,> 100 µM,–
COC(CN1C(=O)c2cccc3cccc(c23)C1=O)OC,> 100 µM,–
Clc1ccc(/C=C/c2nc3ccccc3s2)cc1Cl,> 100 µM,–
Cc1ccc(NC2=C(Cl)C(=O)N(Cc3ccccc3)C2=O)cc1O,82.5 µM,26.2

SMILES,TGI,GI50 [µM]
CC[C@@]1(O)C(=O)OCc2c1cc1n(c2=O)Cc2c-1nc1ccccc1c2/C=N\NC(=O)CN,> 78.3 µM,–
COc1ccc(/C=C2\CCC(C)C3=C2NC(=S)NC3c2ccc(OC)c(OC)c2)cc1OC (configuration not stated),> 31.6 µM,–
CC(=O)NNc1nc(C)c(C(=O)NNC(=O)C(=O)Nc2c(Cl)cc([N+](=O)[O-])cc2Cl)s1,> 100 µM,–
CC/C=C\CCC/C=C1/C(=O)C=C[C@@H]1C/C=C\CCCC(=O)OC,15.1 µM,3.6
COC1(OC)CCC2C1C1CCC(OC)(OC)C21 (configuration not stated),> 50 µM,–
N#CCCN(CCC#N)c1ccc(/C=C2\N=C(c3cc([N+](=O)[O-])ccc3Cl)OC2=O)cc1,> 100 µM,–
CC1(c2ccc(F)cc2)C(C#N)C(=O)NC(=O)C1C#N (configuration not stated),> 100 µM,–
CC[C@@]1(O)C[C@H](OC2CC(N(C)C)C(O)C(C)O2)c2c(O)c3c(c(O)c2[C@H]1OC1CC(N(C)C)C(O)C(C)O1)C(=O)c1cccc(O)c1C3=O (some centres not stated),0.415 µM and 0.079 µM,< 0.01
Cc1cc(I)cc(CN(C)CCCCN2CCCCC2)c1O,95.9 µM,23.9
C=C(Br)C(C)(Cl)CCC(Br)C(C)(C)Cl (configuration not stated),> 100 µM,–
COC(=O)CC1CCN(C#N)CC1CC[N+](=O)[O-] (configuration not stated),> 100 µM,–
O=C1/C(=C/c2ccc(O)cc2)CC/C1=C\c1ccc(O)cc1,> 100 µM,–
O=CN/C=C/c1cc(O)ccc1O,> 100 µM,–
Cc1ccccc1-n1c(=O)c2ncn(CCCl)c2n(-c2ccccc2C)c1=S,> 100 µM,–
O=C1CCC23CC(C=CC=C12)n1c(=O)n(-c2ccccc2)c(=O)n13 (configuration not stated),> 100 µM,–
Cc1cc(O)c2c(=O)c3ccccc3[nH]c2c1,> 100 µM,–
COC(=O)C1CCC(=O)N1C(c1ccccc1)c1ccc(OC)c(OC)c1 (configuration not stated),> 100 µM,–
FC(F)(F)c1cc(Cl)cnc1N/N=C(/c1ccccc1)c1ccccn1,54 µM,–
